From the supplement of paper PMC9588766 come the findings set out here.

Each structure is given as a SMILES string. Where a name gives a salt, the structure may show the parent alone. In all, about 1,900 compounds were measured (“cell viability of compound + 1 nM pemigatinib relative to pemigatinib-only (DMSO) wells”: median about 0.95, lowest 2% from about 0.22 on). This is one part of the list.

The assay relates to PDC-DUC18828. The experiment in a line: cell viability of compound + 1 nM pemigatinib relative to pemigatinib-only (DMSO) wells (fraction); PDC-DUC18828 is a patient-derived cholangiocarcinoma cell line; higher = less growth inhibition. The settings on record: first compound 1 µM; pemigatinib concentration 1 nM; 72 h. As for the experimental part: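 Selleck Bioactive library screen in the patient-derived FGFR2 fusion-positive ICC cell line PDC-DUC18828 (500 cells/well). Each compound was tested at 1 uM with 1 nM pemigatinib, in triplicate, for 72 h. Viability was read by CellTiter-Glo and normalised to plate DMSO controls. Value is the paper's averaged normalised viability.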
With `Cc1ccc(CNc2ncnc3ccc(-c4ccc(CO)o4)cc23)o1` + CCN1C(=O)N(c2c(F)c(OC)cc(OC)c2F)Cc2cnc3[nH]c(CN4CCOCC4)cc3c21 [pemigatinib], the cell viability was found to be 0.933.
With `CN1C(C(=O)Nc2ccccn2)=C(O)c2sc(Cl)cc2S1(=O)=O` [Lornoxicam] + CCN1C(=O)N(c2c(F)c(OC)cc(OC)c2F)Cc2cnc3[nH]c(CN4CCOCC4)cc3c21 [pemigatinib] the figure was 1.12.
With `CC12CC3CC(C)(C1)CC(N)(C3)C2` [Memantine HCl] + CCN1C(=O)N(c2c(F)c(OC)cc(OC)c2F)Cc2cnc3[nH]c(CN4CCOCC4)cc3c21 [pemigatinib] the figure was 1.01; with `C[N+](C)(C)C[C@H](O)CC(=O)[O-]` [L-carnitine] + CCN1C(=O)N(c2c(F)c(OC)cc(OC)c2F)Cc2cnc3[nH]c(CN4CCOCC4)cc3c21 [pemigatinib], 0.945; with `C[N+](C)(C)CC(O)CC(=O)[O-]` (racemic) [DL-Carnitine HCl] + CCN1C(=O)N(c2c(F)c(OC)cc(OC)c2F)Cc2cnc3[nH]c(CN4CCOCC4)cc3c21 [pemigatinib], 0.968.
With `CCS(=O)(=O)N1CCN(c2ccc(Nc3ncc(C(N)=O)c(NC4CC4)n3)cc2)CC1` + CCN1C(=O)N(c2c(F)c(OC)cc(OC)c2F)Cc2cnc3[nH]c(CN4CCOCC4)cc3c21 [pemigatinib] the figure was 0.87; with `Cn1c(N2CCCCS2(=O)=O)nc(C(=O)NCc2ccc(F)cc2)c(O)c1=O` + CCN1C(=O)N(c2c(F)c(OC)cc(OC)c2F)Cc2cnc3[nH]c(CN4CCOCC4)cc3c21 [pemigatinib], 0.948.
With `O=C(c1ccccc1)c1ccc2nc(NC(=O)c3csc(C4CCN(c5ncnc6ccsc56)CC4)n3)[nH]c2c1` + CCN1C(=O)N(c2c(F)c(OC)cc(OC)c2F)Cc2cnc3[nH]c(CN4CCOCC4)cc3c21 [pemigatinib], the cell viability was determined as 0.96.
With `CC(C)(C)CC(C)(C)c1ccc(OCCOCC[N+](C)(C)Cc2ccccc2)cc1` [Benzethonium Chloride] + CCN1C(=O)N(c2c(F)c(OC)cc(OC)c2F)Cc2cnc3[nH]c(CN4CCOCC4)cc3c21 [pemigatinib] the figure was 0.964; with `Cn1nnc2c(C(N)=O)ncn2c1=O` [Temozolomide] + CCN1C(=O)N(c2c(F)c(OC)cc(OC)c2F)Cc2cnc3[nH]c(CN4CCOCC4)cc3c21 [pemigatinib], 0.945; with `O=[N+]([O-])c1cn2c(n1)OC[C@@H](OCc1ccc(OC(F)(F)F)cc1)C2` + CCN1C(=O)N(c2c(F)c(OC)cc(OC)c2F)Cc2cnc3[nH]c(CN4CCOCC4)cc3c21 [pemigatinib], 1.02.
